# Paper PMC4336329 (PLoS ONE, 2015)
# The whole screen tested about 310,000 compounds, of which about 2,200 (0.71%) showed an effect of 50% or more. Effects have a minus sign here. Some of the results follow.
# Target: human ether-à-go-go-related gene (hERG) potassium channel (human, UniProt Q12809)
# Experiment: primary screen, population patch clamp on CHO cells stably expressing hERG
# Chain of human ether-à-go-go-related gene (hERG) potassium channel (Q12809 whole entry, looked up): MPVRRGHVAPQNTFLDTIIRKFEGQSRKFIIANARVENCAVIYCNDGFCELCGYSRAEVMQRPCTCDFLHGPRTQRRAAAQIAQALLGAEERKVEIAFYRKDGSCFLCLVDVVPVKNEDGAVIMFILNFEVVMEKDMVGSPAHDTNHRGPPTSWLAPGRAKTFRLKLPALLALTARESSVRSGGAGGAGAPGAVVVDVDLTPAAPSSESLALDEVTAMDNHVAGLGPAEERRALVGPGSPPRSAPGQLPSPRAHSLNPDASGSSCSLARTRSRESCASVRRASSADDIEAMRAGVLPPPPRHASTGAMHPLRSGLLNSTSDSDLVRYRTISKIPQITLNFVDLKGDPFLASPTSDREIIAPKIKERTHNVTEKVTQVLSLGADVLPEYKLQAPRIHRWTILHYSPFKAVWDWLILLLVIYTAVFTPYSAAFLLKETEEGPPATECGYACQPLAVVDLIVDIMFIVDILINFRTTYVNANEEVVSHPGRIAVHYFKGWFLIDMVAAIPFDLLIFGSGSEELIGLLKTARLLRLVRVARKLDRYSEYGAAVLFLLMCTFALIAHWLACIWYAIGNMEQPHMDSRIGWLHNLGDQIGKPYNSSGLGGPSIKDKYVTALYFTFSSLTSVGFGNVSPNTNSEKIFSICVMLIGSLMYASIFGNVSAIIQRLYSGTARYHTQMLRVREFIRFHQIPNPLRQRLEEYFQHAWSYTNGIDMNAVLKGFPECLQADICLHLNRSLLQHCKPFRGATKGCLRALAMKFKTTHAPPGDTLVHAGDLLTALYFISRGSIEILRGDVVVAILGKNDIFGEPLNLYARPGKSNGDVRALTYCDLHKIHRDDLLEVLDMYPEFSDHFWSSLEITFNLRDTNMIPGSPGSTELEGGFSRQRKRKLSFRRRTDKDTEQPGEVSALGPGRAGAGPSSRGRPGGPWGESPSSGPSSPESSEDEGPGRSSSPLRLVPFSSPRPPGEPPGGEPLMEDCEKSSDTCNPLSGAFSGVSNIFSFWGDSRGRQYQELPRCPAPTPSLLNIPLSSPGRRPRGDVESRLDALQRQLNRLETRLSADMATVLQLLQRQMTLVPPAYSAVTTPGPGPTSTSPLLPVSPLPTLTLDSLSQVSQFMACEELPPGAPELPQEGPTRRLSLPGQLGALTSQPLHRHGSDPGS
row,SMILES,"hERG current change (%, negative = inhibition) at 1uM"
1,COc1ccc2c(c1)-c1ccccc1S(=O)(=O)N2C,-2.81%
2,O=C(COc1ccc(Cl)cc1)OCC(=O)N1CCCc2ccccc21,15.6%
3,Cc1ccc(C)c(C2=NNC(=O)CC2)c1,9.5%
4,O=C(c1cc(COc2ccc(F)cc2Cl)on1)N1CCCC(c2ccccc2)C1 (stereo not drawn),9.53%
5,COc1ccccc1/C=N/NC(=O)c1cccc(NC(=O)c2ccccc2C)c1,3.76%
6,Cc1nc2c(C#N)cnn2c2c1CCN(Cc1ccccc1)N2C,4.83%
7,COc1ccc(C(=O)NCC(C)CN(C)C)cc1 (stereo not drawn),1.94%
8,CC(C)CC(NC(=O)C(CC(C)C)NC(=O)OC(C)(C)C)C(=O)O (stereo not drawn),15.5%
9,Cc1onc(-c2c(F)cccc2Cl)c1C(=O)NNC(=O)C1CCN(Cc2cccc(F)c2)CC1,8.71%
10,CCCN1CCC(NC(=S)Nc2ccc(C(=O)OCC)cc2)CC1,4.88%
11,CN(C(=O)CO/N=C/c1ccc(Cl)cc1)c1ccccc1,-4.09%
12,CCCC(=O)c1ccc(N2CCN(C(=O)c3ccccc3Br)CC2)c(F)c1,9.52%
13,COc1ccc2nc(SCC(=O)NC3CCCC3)c(C)cc2c1,1.89%
14,O=C(O)c1ccc(S(=O)(=O)N2CCCC2)cc1,14.4%
15,Cc1cc(C)c(S(=O)(=O)N2CCCCC2CCNC(=O)C(=O)NCc2ccco2)c(C)c1 (stereo not drawn),14.5%
16,COc1cccc(NC(=O)CSc2nc3n[nH]c(C)c3c(=N)n2-c2cccc(OC)c2)c1,2.18%
17,CC(C)c1ccc(-c2c(C#N)c(N)nc(SCC(=O)N3CCCCC3)c2C#N)cc1,13.8%
18,Cc1ccc(Cn2c(SCC(C)C)nc3c2c(=O)[nH]c(=O)n3C)cc1,9.48%
19,O=S(=O)(c1ccc(OCC2CO2)cc1)c1ccc(OCC2CO2)cc1 (stereo not drawn),20%
20,COc1cccc(C2=CC(c3cccc(OC)c3OC)n3nnnc3N2)c1 (stereo not drawn),10.7%
21,CCCCN(C(=O)c1cc2ccccc2o1)c1c(N)n(CCC)c(=O)[nH]c1=O,6.81%
22,Cc1cc(N2CCN(C(=O)c3ccco3)CC2)nc(-c2ccccc2)n1,-22.6%

row,SMILES,"hERG current change (%, negative = inhibition) at 1uM"
1,CCCNC(=O)c1noc2c1CCc1cc(OC)ccc1-2,13.1%
2,CCc1ccc(NC(=O)Nc2cc(C(=O)NCC3CCCO3)ccc2N2CC3CC(C2)c2cccc(=O)n2C3)cc1 (stereo not drawn),11.3%
3,COc1ccc(C(=O)N2CCN(c3ccccn3)CC2)cc1,6.53%
4,CC(CCc1ccccc1)NC(=O)c1nnc(Cc2ccc(F)cc2)o1 (stereo not drawn),4.74%
5,Nc1nnc(SCc2ccc(F)cc2)s1,-2.01%
6,O=C(CN1CCN(CCO)CC1)Nc1ccc(Cl)cc1C(=O)c1ccccc1,-80.7%
7,Cc1[nH]c2ccccc2c1C(=O)CN1C(=O)NC(C)(c2ccc(Cl)cc2Cl)C1=O (stereo not drawn),13.3%
8,COc1ccccc1Oc1ccc(N/C=C2/CCCC2=O)cc1,6.15%
9,CN(C)S(=O)(=O)c1ccc2c(c1)C(=NO)c1cc(S(=O)(=O)N(C)C)ccc1-2,14.1%
10,CCN1C(=O)CC(C(=O)Nc2ccc(F)cc2)SC1=Nc1ccc2c(c1)OCO2 (stereo not drawn),2.65%
11,Cc1ccc(-c2nc(CS(=O)CC(=O)NCCCN3CC(C)CC(C)C3)c(C)o2)cc1 (stereo not drawn),3.4%
12,O=C(Nc1ncccc1O)c1ccc(Oc2ccccc2)cc1,14.8%
13,COc1cccc(CNC(=O)c2ccc3nc[nH]c3c2)c1,15.7%
14,CC(C)(C)N(Cc1ccccc1)C(=O)COC(=O)c1ccc([N+](=O)[O-])o1,16.1%
15,CCOC(=O)CN1C(=O)C2(C(C#N)=C(N)Oc3ccccc32)C(C(=O)OC)=C1C (stereo not drawn),11.9%
16,CSc1ncccc1C(=O)NCC12CC3CC(CC(C3)C1)C2,12.3%
17,COCc1cccc(NC(=O)CCc2ccccc2)c1,12.9%
18,Cc1cc(Cl)ccc1OCC(=O)NNC(=O)CCOc1ccccc1,-0.757%
19,CCOc1nc(NCCc2ccc(OC)c(OC)c2)nc(NC(C)(C)CO)n1,10.8%
20,CSc1nc(C)c2c(n1)N(c1ccc(C(C)C)cc1)CC2,7.39%
21,O=[N+]([O-])c1ccc(Sc2cc[n+]([O-])c3ccccc23)c([N+](=O)[O-])c1,-0.0631%
22,Cc1ccc(C)c(NC(=S)/C(=C(\[O-])c2ccc(OC(F)F)cc2)[n+]2ccccc2)c1,21.8%

row,SMILES,"hERG current change (%, negative = inhibition) at 1uM"
1,COc1ccc(N2C(=O)N3[C@H](c4ccc(Cl)cc4)[C@@H]4C(=O)N(C5CCCCC5)C(=O)[C@@H]4[C@]3(C)C2=O)cc1,12.7%
2,Cc1ccc(C(=O)N2CCN(C3CCCCC3)CC2)s1,-9.84%
3,C=CCOc1ccccc1C(=O)/C=C1/C(=O)Nc2ccccc21,13.9%
4,Cc1cccc(Nc2nnc(SC/C(O)=C(\C#N)c3nc4ccccc4[nH]3)s2)c1C,3.81%
5,Cc1cccc(N2CCC(N3CCN(C4CCCCC4)C(CCO)C3)CC2)c1C (stereo not drawn),-4.91%
6,CCN(CC)S(=O)(=O)c1ccc(NC(=O)COc2nc3ccccc3nc2N2CCOCC2)cc1,-3.92%
7,COc1ccccc1OCC(=O)NCc1nc(-c2ccccc2)no1,5.59%
8,CC1CCCCC1NC(=O)C(=O)NCC1CCCO1 (stereo not drawn),4.9%
9,O=C(Nc1ccccc1C(=O)N1CCCCC1)c1cccc(S(=O)(=O)N2CCOCC2)c1,8.21%
10,Cc1ccc(C)c(C(=O)COC(=O)c2cc(Cl)nc3ccccc23)c1,16.6%
11,CCOc1ccc(S(=O)(=O)N/N=C2/CC(c3ccccc3)Oc3ccccc32)cc1 (stereo not drawn),4.51%
12,COc1ccc(NC(=O)c2cc(-c3ccccc3Cl)on2)cc1,12.9%
13,O=C(N[C@@H](c1ccccc1)[C@@H]1C[C@H]1C(=O)O)OCc1ccccc1,13.8%
14,O=S(=O)(Nc1ccccn1)c1ccc(-n2cccn2)cc1,18.3%
15,O=C(c1cc2sccc2n1Cc1ccccc1)N1CCCc2ccccc21,0.679%
16,Cc1cc(=O)[nH]c(SCc2nc3ccccc3c(=O)n2-c2ccccc2C)n1,21.4%
17,CSCCC(NC(=O)c1ccccc1)C(=O)N1CCN(C(c2ccccc2)c2ccccc2)CC1 (stereo not drawn),13.2%
18,COCCCN(CC(=O)Nc1ccc(N2CCOCC2)cc1)S(=O)(=O)c1ccccc1,6.63%
19,COC(=O)c1cnc(Nc2cc(C)ccc2OC)c2ccccc12,13.6%
20,C=CCn1c(C)c(C(C)=O)cc(NC(=O)c2ccccc2)c1=O,1.91%
21,N=C(N=C(N)N)N1CCc2ccccc21,10.8%
22,O=C(O)c1nccnc1C(=O)Nc1ccc(S(=O)(=O)N2CCOCC2)cc1,7.7%

row,SMILES,"hERG current change (%, negative = inhibition) at 1uM"
1,CCn1c(CSCc2ccc(Cl)cc2)nnc1SCC(=O)Nc1cccc(C(=O)O)c1,9.34%
2,CC(=O)NC1(C(F)(F)F)C(=O)Nc2c1c(=O)[nH]c(=O)n2-c1ccccc1 (stereo not drawn),18.6%
3,CCOC(=O)[C@H]1[C@H]2COc3ccc(OC)cc3[C@H]2N2C(=O)CNC(=O)[C@@]12C,11.7%
4,CCc1nnc(N/N=C/c2cccs2)n1N.Cl,7.4%
5,CC1=NN(C(N)=S)C(=O)C1N=Nc1cccc(Cl)c1 (stereo not drawn),9.02%
6,Cc1cccc(C(=O)N2CCc3cc(-c4nc(NC(=O)Cn5nnc6ccccc6c5=O)sc4C)ccc32)c1,18.8%
7,O=C(Nc1ccc(C(=O)NCc2ccc(F)cc2)cc1)C1=CSCCO1,-0.658%
8,N#Cc1cc(Cl)c(N2CCOCC2)cc1C#N,7.95%
9,CCC(C)(C)n1nnnc1C(C(C)C)N1CCN(C)CC1.Cl (stereo not drawn),15.1%
10,CCC(=O)c1ccc(OCC(=O)NCCc2ccccn2)cc1,4.02%
11,Cn1c(C(=O)N[C@@H](C(=O)O)c2ccccc2)cc2cc(F)ccc21,17.8%
12,Cc1cc(NC(=O)CSc2nnc3ccccn23)no1,3.24%
13,O=C(NC(=S)NC(CO)c1ccccc1)c1ccc(F)cc1 (stereo not drawn),9.75%
14,Cc1ccc(S(=O)(=O)N2CCCC2C(=O)OCc2ccccc2)cc1 (stereo not drawn),9.93%
15,COc1ccc(CNC(=O)Nc2ccc(OC)cc2)cc1,10.6%
16,O=C(Nc1ccc(Cl)cc1Cl)C1=Cc2ccccc2OC1,3.71%
17,Cc1[nH]c2ccc(C(=O)N3CCN(c4ccccn4)CC3)cc2c1C,9.07%
18,Cc1ccc(NC(=S)N(CCN2CCCCC2)Cc2ccco2)cc1Cl,1.2%
19,O=C1CC(c2cccc([N+](=O)[O-])c2)c2c(ccc3ccccc23)N1 (stereo not drawn),10.9%
20,Cc1ccc(N2CCN(C(=O)C3CCCN(c4ncnc5c4nc4n5CCCCC4)C3)CC2)c(C)c1 (stereo not drawn),9.53%
21,Cc1ccc(OCCNS(=O)(=O)c2ccc(N3CCCC3=O)cc2)cc1C,3%
